Test results: PubChem BioAssay AID463173 (ICCB-Longwood Screening Facility, Harvard Medical School, 2010)
The campaign covered roughly 52,000 compounds. About 4,300 (8.3%) were called active. No stated cut-off is given here; in the data, active means survival mostly below about 52% (no sharp cut-off); inactive means mostly above about 56%. The list shows a part of the results.

Each compound was assayed on DeltatarO mutant (assay: S. aureus survival, RN4220 and DeltatarO strains – OD600, teichoic acid synthesis inhibitors, primary screen (AID 463173)). Details: S. aureus RN4220 wild type/DeltatarO growth, OD600, 18 h, hits give low values, screened at 18.75 µg/mL (by protocol).

SMILES	survival
CCOC(=O)CSc1nc2ccc(NC(=O)COc3ccc(F)cc3)cc2s1	inactive: 106%
CCOC(=O)c1ccc(N2CCN(c3ccccc3OC)CC2)c(NC(=O)Nc2ccc(CC)cc2)c1	inactive: 73%
Cc1cc(C(=O)N2CCN(c3cccc(Cl)c3)CC2)c2c(C)nn(-c3ccccc3Cl)c2n1	inactive: 90%
COc1ccc(CNC(=O)C2=CC(c3ccc(OC)c(OC)c3)=NS(=O)(=O)N2C)cc1	inactive: 67%
O=C(CN1C(=O)CSC1=O)NC1CCCCC1	inactive: 96%
CCn1cc(C(=O)N2CCN(c3cc(Cl)ccc3C)CC2)c(=O)c2cc(S(=O)(=O)N3CCCC3)ccc21	inactive: 93%
COc1ccc(NC(=O)C(C)Sc2nc(C)cc(=O)[nH]2)cc1 (stereo not drawn)	inactive: 101%
O=C(COc1ccccc1)N=Nc1c(O)[nH]c2ccccc12	inactive: 83%
COc1cc(Cl)c(C)cc1NC(=O)c1cc2c(=O)oc3ccccc3c2s1	inactive: 124%
CC(C)(C)C1CCc2c(sc(NC(=O)c3ccco3)c2C(=O)Nc2ccccc2Cl)C1 (stereo not drawn)	inactive: 135%
COc1cc2nc(SCC(=O)Nc3ccccc3C)n3nc(CCn4c(C)nc5ccccc54)nc3c2cc1OC	inactive: 77%
Cc1nnsc1C(=O)Oc1ccc(Cl)cc1	inactive: 86%
O=C(O)CC(NC(=O)c1ccco1)c1ccc(F)cc1 (stereo not drawn)	inactive: 79%
O=C(CSc1nc2c([nH]c3ccccc32)c(=O)n1-c1cccc(Cl)c1)c1ccccc1	active: 47%
O=C(NCc1ccccc1)C(=O)NCC(c1cccs1)S(=O)(=O)c1cccs1 (stereo not drawn)	inactive: 91%
COc1ccc(N2CCN(CCCNC(=O)c3cnn(-c4ccc(C)cc4)c3-n3cccc3)CC2)cc1	inactive: 92%
CCOc1ccc(NC(=O)N(Cc2cn(CC)c3ccccc23)C2CCCCCC2)cc1	active: -12%
COc1ccc(S(=O)(=O)c2c(Nc3ccc(C)cc3C)sc(C(=O)c3ccc(F)cc3)c2N)cc1	inactive: 107%
Cc1cc(C)c(NC(=O)C2CCN(S(=O)(=O)c3c(C)noc3/C=C/c3ccccc3F)CC2)c(C)c1	inactive: 78%
CN(C)c1ccc(C(CNC(=O)c2ccccc2Cl)N2CCCC2)cc1 (stereo not drawn)	inactive: 81%
COc1ccccc1NC(=O)N1CCN(Cc2nc3ccc(C)cc3o2)CC1	inactive: 84%
Cc1cc(C)c(NC(=O)Cn2c(=O)n(CC3CCCO3)c(=O)c3ccccc32)c(C)c1 (stereo not drawn)	inactive: 87%

SMILES	survival
COc1cccc(N2CCN(C3=NS(=O)(=O)C(c4ccc(C)cc4)=C3C)CC2)c1	inactive: 81%
Cc1ccc(Cn2c(=O)n(CCCCC(=O)NCc3ccc4c(c3)OCO4)c(=O)c3ccccc32)cc1	inactive: 102%
CCc1ccccc1S(=O)(=O)Cc1ccc(C(=O)NCCc2ccc(C)cc2)o1	inactive: 87%
Cc1cc(C)cc(C(=O)NCCc2csc(-c3ccc(C(F)(F)F)cc3)n2)c1	inactive: 94%
CCc1ccccc1NC(=O)CSc1ncc2c(n1)-c1cc(Cl)ccc1N(Cc1ccccc1)S2(=O)=O	inactive: 81%
CCOC(=O)c1nnn(-c2nn3nnnc3c3ccccc23)c1C	inactive: 105%
Cc1c(C(=O)OCC2CCCCC2)[nH]c2c1C(=O)CC(c1ccccc1Cl)C2 (stereo not drawn)	inactive: 97%
CCOc1ccc2nc3sc(C(=O)Nc4nonc4C)c(N)c3cc2c1	inactive: 69%
COc1ccc(CCNC(=O)CCc2c(C)nc3c4cccnc4nn3c2C)cc1OC	inactive: 87%
CCCCn1cc(S(=O)(=O)c2ccc(OC)cc2)c(=O)c2cc(F)c(N3CCOCC3)cc21	inactive: 92%
CCc1ccc(-n2nc(C)c3c(C)cc(=O)n(CC(=O)Nc4cc(C)ccc4C)c32)cc1	inactive: 74%
COc1ccc(NC(=O)c2ncn(-c3ccccc3)n2)cc1Cl	inactive: 83%
CCOc1ccc(NC(=O)CC2C(=O)N(c3ccccc3)C(=O)N2CCc2sccc2C)cc1 (stereo not drawn)	inactive: 73%
O=C(Cn1cc(SCc2cccc(Cl)c2)c2ccccc21)N1CCCCC1	inactive: 73%
c1cncc(-c2nnc(SCC3CCCCC3)o2)c1	inactive: 62%
O=C1C2C3c4ccccc4C(c4ccccc43)C2C(=O)N1Cc1ccco1 (stereo not drawn)	inactive: 104%
NC(=O)C1CCN(C(=O)c2cc(-c3ccccc3)on2)CC1	inactive: 98%
Fc1ccc(-c2cc(-c3nc(-c4ccc(Cl)cc4)no3)[nH]n2)cc1	inactive: 87%
COc1ccc(S(=O)(=O)c2c(C(=O)c3ccc(C)c(C)c3)cnc3ccc(C)cc23)cc1	inactive: 81%
Cc1c(C(=O)OC2CCC(C)CC2)[nH]c2c1C(=O)CC(c1ccc(N(C)C)cc1)C2 (stereo not drawn)	inactive: 68%
CCc1ccc(OC(=O)CSc2nnc(-c3ccc(OC)c(OC)c3)o2)cc1	inactive: 69%
Cc1c2cnn(CC(=O)NC(C)C)c(=O)c2c(C)n1Cc1cccc(Cl)c1	inactive: 79%

SMILES	survival
O=C(CN1CCC(n2cnc3cc(F)ccc32)CC1)Nc1ccccc1Br	inactive: 94%
COc1ccc(/C=C/c2nc(C#N)c(NCc3ccc(C)cc3)o2)cc1OC	inactive: 84%
CCNC(=O)c1ccc2c(c1)sc1nc(-c3cccc(OC)c3)cn12	inactive: 53%
CC(Oc1ccccc1)C(=O)Nc1cccc(-c2cn3cccnc3n2)c1 (stereo not drawn)	inactive: 75%
CN(C)c1ccc(-c2nnc(-c3ccc(Cl)cc3)o2)cc1	inactive: 59%
O=C(NCCc1ccccc1)c1ccc2c(c1)N(Cc1ccc(F)cc1Cl)C(=O)CS2	active: 55%
CCCc1nnc(SCC(=O)N2CCCc3ccccc32)n1CC	inactive: 107%
Cc1ccc(NC(=O)N2CCC3(CC2)Oc2ccccc2C(=O)N3Cc2ccc(F)cc2)cc1	inactive: 71%
Cc1cc2c(=O)[nH][nH]c(=S)n2n1	inactive: 75%
Cc1cc(C)c2c(=O)cc(C(=O)Nc3sc4c(c3C(=O)NCc3ccco3)CCCC4)oc2c1	inactive: 48%
CS(=O)(=O)CC[C@@H](C(=O)NCCc1ccccc1)N1Cc2ccccc2C1=O	inactive: 94%
CN(c1nnc(NC(=O)Nc2ccccc2C(F)(F)F)s1)C1CCCCC1	inactive: 100%
COc1ccc(NC(=O)Cn2c(=O)c3ccccc3n3nncc23)cc1Cl	inactive: 105%
COCc1cc(C)nc2c1C(=O)NC(c1ccc(NC(C)=O)cc1)N2Cc1ccccc1 (stereo not drawn)	inactive: 74%
CC(C)(C)OC(=O)N1CCC(c2c(C(=O)N3CCN(C(=O)c4ccco4)CC3)cnn2-c2cccc(Cl)c2)CC1	inactive: 99%
CC(=O)c1ccc(NC(=O)c2nc(-c3ccc(Cl)cc3)n3c2CCCCC3)cc1	inactive: 101%
Cc1ccccc1CSc1nc2c(sc3ccccc32)c(=O)n1CCCC(=O)NCCCOC(C)C	inactive: 87%
COC(=O)c1cc(NC(=O)CC2C(=O)OCCN2Cc2ccccc2)cc(C(=O)OC)c1 (stereo not drawn)	inactive: 178%
COc1cccc(OCC(=O)NC2CC(=O)N(c3cccc(OC)c3)C2)c1 (stereo not drawn)	inactive: 106%
COc1ccc(N(CC(=O)N2CCc3ccccc3C2)S(=O)(=O)c2ccccc2)cc1	inactive: 58%
CCOC(=O)c1nnn(C(CC)C(=O)Nc2ccc(F)cc2)c1C(=O)OCC (stereo not drawn)	inactive: 119%
COc1ccccc1C1C(C(=O)N2CCCCC2)=C(C)Nc2nc3ccccc3n21 (stereo not drawn)	inactive: 80%

SMILES	survival
CCOc1ccc(S(=O)(=O)c2cn(CC)c3ccc(F)cc3c2=O)cc1	inactive: 91%
Cc1ccc(NC(=O)CN2C(=O)c3cccnc3Sc3ccccc32)c(Br)c1	inactive: 89%
Cc1ccc(Nc2c3c(nc4nncn24)CCC3)c(C)c1	inactive: 96%
COc1ccc2c(c1)-c1nc(NC(=O)c3cccc(Br)c3)sc1CC2	inactive: 51%
COCCN1Cc2cccc(C(=O)N(CC(=O)NC3CCCCC3)Cc3ccc4c(c3)OCO4)c2C1=O	inactive: 93%
Cn1c(=O)c2c(nc(CN3CCN(CCO)CC3)n2CCCc2ccccc2)n(C)c1=O	inactive: 100%
O=C(C1COc2ccccc2O1)N(Cc1cccnc1)c1nc2c(F)cccc2s1 (stereo not drawn)	inactive: 84%
CCOC(=O)c1c(NC(=O)c2cc(-c3cccc(Cl)c3)on2)sc(C(C)=O)c1C	inactive: 56%
CC1CCN(S(=O)(=O)c2cc(C(=O)N3CCN(c4cccc(Cl)c4)CC3)n(C)c2)CC1	inactive: 70%
CCOC(=O)c1c(C)oc2nc(C)nc(NCC3CCN(Cc4cc(C)ccc4C)CC3)c12	inactive: 80%
CCCN(C(=O)CCc1nc(-c2ccc(C)cc2)no1)c1ccc(OCC)cc1	active: -4%
Cc1ccc(N2C(=O)C(CC(=O)Nc3cccc(F)c3)N(CCc3ccccc3F)C2=O)cc1 (stereo not drawn)	inactive: 110%
O=C1NCCCC1C(=O)N1CCc2ccccc21 (stereo not drawn)	inactive: 101%
CC1=NN(c2ccccc2)C(=O)C1CCC#N (stereo not drawn)	inactive: 85%
CSc1ccc(CCNC(=O)Cn2c(C)c3cnn(-c4ccccc4)c(=O)c3c2C)cc1	inactive: 89%
Cc1cccc2cc(C#N)c(N3CCC(C)CC3)nc12	inactive: 76%
COc1cccc(/C=C/c2nc(C#N)c(NC3CCCCC3)o2)c1	inactive: 69%
CCc1cccc(NC(=O)CSc2nnc(-c3cc4occc4n3C)n2-c2ccccc2C)c1	inactive: 89%
Cc1ccc(-n2nc(CO)c(C(=O)NCCC(C)C)n2)cc1C	inactive: 100%
COc1cccc(-n2c(=O)c3sc4ccccc4c3n(Cc3c(F)cccc3Cl)c2=O)c1	inactive: 88%
Cc1ccc(CNC(=O)c2ccc(Cn3c(SCc4ccc(F)cc4)nc4cccnc43)cc2)o1	inactive: 81%
O=c1n(Cc2ccc(F)cc2)c2ccccc2c2nc(-c3ccccc3)nn12	inactive: 86%
